Data: ChEMBL document CHEMBL4888484, “Replenishing the malaria drug discovery pipeline: Screening and hit evaluation of the MMV Hit Generation Library 1 (HGL1) against asexual blood stage Plasmodium falciparum ,using a nano luciferase reporter read-out” (2022)
Where “and” joins values, the source holds several entries; their conditions need not be identical. Identical values can stand only once. Screen size: about 150,000 compounds; about 540 (0.36%) showed an effect of 50% or more. Some of the results follow.

Tested on: Plasmodium falciparum
Assay: Primary screen in NF54 nanoGlo assay, in single point, at 2uM, 72h; a lower Z score goes with more inhibition
Type: functional, Erythrocyte
Settings: timepoint 72 hour

| SMILES | % Inhibition | Z score | % Inhibition (2 µM) |
| --- | --- | --- | --- |
| CN1CC[C@@H]2CN(c3nnc(-c4ccon4)s3)C[C@@H]21 | -8% | 1.15 | – |
| CCCn1cc(C(=O)Nc2cc(N(C)C)n3nc(C)cc3n2)nn1 | 10% | -1.33 | – |
| CN1CC=C(c2noc(CCC(=O)NCc3ccccc3Cl)n2)CC1 | -10% | 1.18 | – |
| CCc1ncc(CN[C@](C)(CO)Cc2ccc(Cl)cc2)o1 | -10% | 1.57 | – |
| Cc1cc(C)c(C#N)c(N2CCN3CCN(C)C(=O)[C@@H]3C2)n1 | -20% | 3.77 | – |
| CC(C)S(=O)(=O)N1CC[C@@H]2COCCN(C)[C@@H]2C1 | -9% | 1.17 | – |
| Cc1ccccc1CC(C)NCC1CCCS1(=O)=O (centres undefined) | -10% | 1.11 | – |
| Cc1cc(C)c(CNc2ccc(Br)cn2)c(=O)[nH]1 | -10% | 1.26 | – |
| O=C(c1cccc(-c2ncccn2)c1)N1CCCN2CCC[C@H]2C1 | 7% | -0.89 | – |
| CCOc1ccccc1C(=O)N1CCC2(CC1)c1nccn1-c1ccccc1CN2C | -13% | 1.74 | – |
| O=C(Cc1ccccc1)N1C[C@@H]2C[C@@H](O)CN2C2(CN(Cc3ccccc3)C2)C1 | -7% | 1.17 | – |
| CN1CCN([C@H]2COC[C@@H]2NC(=O)c2cncc(Cl)c2)CC1 | -5% | 0.63 | – |
| CC[C@@H](C(=O)N(CC)c1ccncc1)N1CCCC1=O | 10% | -1.39 | – |
| O=C(CCCCc1nc2ccccc2s1)N1CCC(Nc2ccccc2Cl)CC1 | -12% | 1.1 | – |
| CO[C@H]1C[C@H]2CC[C@@H](C1)N2Cc1ccc2c(c1)CCO2 | -6% | 1.15 | – |
| O=C(Cc1ccc(F)cc1)N(CCN1CCCC1)CC(=O)N(Cc1ccc(F)cc1)Cc1cccs1 | -6% | 0.87 | – |
| CCOC(=O)[C@]12CCCN[C@@H]1CCN(c1nccc(OC)n1)C2 | -14% | 1.39 | – |
| C[C@H](NC(=O)c1cnn(Cc2ccccc2)c1)C1=CCCCC1 | -6% | 1.17 | – |
| Cn1ncc(Cl)c1CN1CC2(CCOCC2)C1 | -3% | 0.39 | – |
| C[C@@H](CCO)C1(CNC(=O)c2cccc3oc(=O)[nH]c23)CCC1 | -8% | 1.23 | – |
| Cc1ccc2snc(-c3nc([C@@H]4CN5CCN4CC5)no3)c2c1 | -7% | 0.97 | – |
| CC(C)(C)C(=O)NCC#CCN1CCCCC1 | -10% | 1.82 | – |

| SMILES | % Inhibition | Z score | % Inhibition (2 µM) |
| --- | --- | --- | --- |
| C=CCN1CC[C@]23c4c5ccc(O)c4O[C@H]2C(=O)CC[C@@]3(O)C1C5 | -14% | 1.2 | – |
| CC1(C)NC(=O)c2ccccc2-n2nnnc21 | 9% | -1.36 | – |
| COC1CCN(C2CN(C(=O)Cc3ccsc3)C2)CC1 | -5% | 0.86 | – |
| Cc1ccc([C@H]2CN(Cc3cc4ccccc4o3)C[C@@H]2C(=O)O)cc1 | -4% | 0.48 | – |
| O=C1NCCN(Cc2cnc(N3CCOCC3)nc2)C12CCCC2 | -4% | 0.83 | – |
| CN1CCC[C@@]2(CCN(c3ccncc3C3CC3)C2)C1 | 0% | 0.05 | – |
| CN1C(=O)C(C(=O)O)C2c3ccccc3OC13CCCCC23 (centres undefined) | -12% | 1.61 | – |
| COc1ccccc1OCC(=O)N1C[C@H](c2ccc(C)cc2)[C@@H](N(C)C)C1 | -16% | 2.07 | – |
| CC(C)NC(=O)CCc1nc(C2=CCN(Cc3ccc(Cl)cc3)CC2)no1 | -14% | 1.74 | – |
| CNC(=O)Oc1ccc(-c2cn3cc(Cl)ccc3[n+]2C)cc1 | 31% | -3.64 | – |
| C[C@@H](Cc1ccccc1F)NCC1(CO)CCCC1 | -3% | 0.57 | – |
| CC1(C)C(C(=O)N2CCC(n3ccnn3)CC2)C1(C)C | -5% | 0.9 | – |
| Cc1ccc(Cl)cc1NC(=O)CN1CCCC1=O | -8% | 1.15 | – |
| Cn1cc(C(C)(C)C(=O)Nc2cccc(S(=O)(=O)F)c2)cn1 | 6% | -0.79 | – |
| O=C(Nc1ccc(-c2noc(=O)[nH]2)cc1)C1CC2(CCOCC2)C1 | -8% | 0.82 | – |
| COc1cc(CC(=O)N2CCN(C)C3(CCN(C)CC3)C2)cc(OC)c1 | 3% | -0.6 | – |
| CC(C)(C)OC(=O)N1[C@@H]2CC[C@H]1[C@@H]1C[C@]1(C(=O)O)C2 | -10% | 1.06 | – |
| CN(Cc1cccnc1)C1CN(C(=O)Cc2cccc(F)c2)C1 | -4% | 0.67 | – |
| CCCc1nn(C[C@H](O)COc2ccccc2)c(=O)o1 | 0% | 0.03 | – |
| Cc1nc[nH]c1CN1C[C@H]2CC[C@@H](C1)N(C(=O)Cc1ccc(F)cc1Cl)C2 | 11% | -1.58 | – |
| CN1CCN(C(=O)COc2c3c(cc4c2C(=O)N(C)CC4)OCO3)CC1 | -10% | 1.3 | – |
| CN1CC2CN(c3nc4ccccc4s3)CC2C1 (centres undefined) | -8% | 1.06 | – |

| SMILES | % Inhibition | Z score | % Inhibition (2 µM) |
| --- | --- | --- | --- |
| Cc1ccc(C(O)(c2ccc(C)c(C)c2)[C@H]2C[N@]3CC[C@@H]2CC3)cc1C | 37% | -0.92 | – |
| N#Cc1cc(C(=O)N2C[C@@H]3CCCN3Cc3ccccc32)ccn1 | -13% | 1.57 | – |
| CCCC(=O)N1C[C@H](c2cc(F)cc(F)c2)[C@@H]2[C@H]1C1CCN2CC1 | 2% | -0.41 | – |
| O=C(Cc1cc2c(cc1Cl)OCCO2)N1CC(N2CCOCC2)C1 | 15% | -1.92 | – |
| C[C@@H](Cn1cc(Br)cn1)NCCC(F)(F)F | -3% | 0.45 | – |
| O[C@@H](CNC1CCCCC1)COC1CCCC1 | -7% | 1.09 | – |
| CN1C[C@@H]2CC[C@H]1CN(C(=O)Cc1cccc(Cl)c1)C2 | 14% | -1.32 | – |
| CC(Cc1ccc(Br)cc1F)NCC(CCO)c1ccccc1 (centres undefined) | -4% | 0.64 | – |
| N#CCN(C1CC1)S(=O)(=O)c1ccc(C#N)c(C(F)(F)F)c1 | -2% | 0.25 | – |
| CC(=O)OC1C2CCC1C(N1CCCCC1)CC2 (centres undefined) | – | – | -7% and 4% |
| Cc1conc1CN1CCc2nc[nH]c2C12CCOCC2 | -5% | 0.83 | – |
| O=C(c1ccccc1)c1cc(Cl)ccc1NC(=O)[C@H]1CC(=O)N(c2ccc(F)cc2)C1 | 56% | -9.01 | – |
| O=C1NC(=O)C2(Cc3ccccc3N3CCCCC32)C(=O)N1c1cc(Cl)ccc1Cl (centres undefined) | -7% | 0.92 | – |
| O=C(c1cnn2cccnc12)N1C[C@@H](c2ccccc2)[C@@H]2[C@H]1C1CCN2CC1 | -4% | 0.73 | – |
| CNS(=O)(=O)c1cccc2c1CCNC2 | -14% | 1.76 | – |
| CC(C)CN1C(=O)N(c2cccc(Cl)c2)[C@@H](n2oc(=O)n(-c3cccc(Cl)c3)c2=O)C1(C)C | -4% | 0.62 | – |
| C[C@H](NCc1ncc(Cl)cc1Br)[C@H](O)c1ccc2c(c1)OCO2 | 11% | -1.87 | – |
| COCC(C)(C)N1CCN(C(=O)Cc2c(C)n[nH]c2C)CC1 | 1% | -0.14 | – |
| CN1CC2CCN(S(=O)(=O)c3c[nH]c4ncc(Br)cc34)C2C1 (centres undefined) | -4% | 0.49 | – |
| CN1C(=O)C2(CCN(C[C@H]3CCCO3)CC2)c2ccccc21 | -8% | 0.73 | – |
| Cn1ccnc1CCN1CCC(C(F)(F)F)CC1 | -15% | 1.66 | – |
| Cc1ccc(CNCCc2c[nH]c3ccccc23)o1 | 14% | -1.58 | – |

| SMILES | % Inhibition | Z score | % Inhibition (2 µM) |
| --- | --- | --- | --- |
| CCNC(=O)c1ccnc(N2C[C@H](c3ccccc3)[C@@H]3[C@H]2C2CCN3CC2)c1 | 8% | -1.16 | – |
| CCc1nnc(CN(CC)C(=O)CN2C(=O)CC[C@@H]2C)o1 | -4% | 0.76 | – |
| c1ccc(-c2ccc(NCc3cncnc3)nc2)cc1 | -11% | 1.16 | – |
| O=C(NCc1ccco1)Oc1ccccc1 | -12% | 1.54 | – |
| CCOc1ccc([C@@H](C#N)C(C)=O)cc1OCC | -12% | 1.21 | – |
| O=C(Cc1ccc2c(c1)OCO2)N1C[C@@H]2CC[C@H]1CN(Cc1ccccn1)C2 | -10% | 1.51 | – |
| CC(C)(N)Cc1cccc(Br)c1 | 3% | -0.37 | – |
| CC(C)c1cncnc1N1C[C@H]2COc3ccccc3C[C@@]2(C(=O)O)C1 | -15% | 2.53 | – |
| c1nc(CN2CC3(CCCCC3)C2)cs1 | -12% | 1.76 | – |
| Nc1ncnc(N2CCc3ccnc(O)c3C2)c1Cl | -16% | 3.22 | – |
| Cc1ccc(OCc2c(C(=O)NCc3cccnc3)c(=O)cc(C)n2CCN2CCOCC2)cc1 | 3% | -0.42 | – |
| N#Cc1ccc(NCCCOC[C@H]2CCOC2)cc1Cl | 1% | -0.16 | – |
| CN1C(=O)[C@@]2(c3ccccc31)[C@@H](C(=O)N1CCC3(CC1)OCCO3)C[C@H]1CCCN12 | -17% | 1.67 | – |
| CC(C)n1ccc(CN2C[C@@H](C(=O)O)[C@H](c3ccc(Br)cc3)C2)n1 | -2% | 0.44 | – |
| Nc1ccc(C(=O)N2CCN(CC3CC3)[C@@H]3CS(=O)(=O)C[C@@H]32)cn1 | 3% | -0.48 | – |
| COc1cc(OC)cc(C(C(=O)O)N2C3CCC2CC2(C3)CC2(F)F)c1 (centres undefined) | -18% | 1.93 | – |
| CC(C)c1nnc2ccc(NC(=O)c3cn(CC4(C)COC4)nn3)cn12 | -1% | 0.2 | – |
| COc1ccc(CN2C[C@H]2C(N)=O)cc1 (some centres undefined) | 8% | -1.02 | – |
| O=C(c1nc(Cn2nc(-c3ccccc3)ccc2=O)no1)N1CCC2(CC1)OCCO2 | -12% | 1.47 | – |
